Data on 3 compounds can be found in PubChem BioAssay AID1918942 (Molecular Pharmacology Branch, DTP, NCI, 2023).

The test relates to 743489-274-T-PDC complex spheroid viability. The test is described as follows: Anticancer human tumor 743489-274-T-PDC patient-derived renal cell carcinoma cell line growth inhibition. Conditions: stronger effect = lower value. An excerpt:
Multicellular complex tumor spheroid response to LSD1 Inhibitor Iadademstat in combination with a variety of drugs and investigational agents in selected tumor cell lines
The current study was undertaken to assess response to LSD1 inhibitors in combination with standard-of-care drugs and investigational agents in solid tumor complex spheroid models as well as in the K-562 leukemia. Complex spheroids include a stromal component modeled by human endothelial cells (HUVEC) and fibroblasts modeled by human mesenchymal stem cells (MSCs). The concentration ranges selected for each drug and investigational agent were based upon clinically achievable concentrations if the clinical Cmax of the agent was known.
Compounds. The drugs and investigational agents used in this study are listed on Table 1. All of the agents used, including staurosporine (NSC755774) and gemcitabine (NSC613327), were obtained from the Developmental Therapeutics Program, NCI. FDA-approved anticancer drugs are available from the NCI at http://dtp.nci.nih.gov/branches/dscb/oncology_drugset_explanation.html. Drugs and investigational agents were >95% pure by proton nuclear magnetic resonance (NMR) and liquid chromatography/mass spectrometry (LC/MS). Stock solutions were prepared at 400x in DMSO, stored at -70 degrees C, and diluted in fresh medium prior to their use. The final concentration of DMSO in cell culture wells never exceeded 0.25% (v/v). The FDA-approved anticancer drug set is available from the Developmental Therapeutics Program at https://dtp.cancer.gov/organization/dscb/obtaining/available_plates.htm. All drugs and investigational agents were tested over a range starting from a high concentration at or near the clinical Cmax and decreasing in half-log increments. If the clinical Cmax for an agent had not been determined, the highest concentration tested was 10 microM.
Cell Lines. The patient-derived cancer cell (PDC) lines: 292921-168-R-J2-PDC, K24384-001-R-PDC, and 521955-158-R2-J5-PDC pancreatic carcinomas, 556581-035-R-J1 ovarian carcinoma, 324938-238-R-J1-PDC, 855422-203-R-J1-PDC and 883617-216-R-J1-PDC urothelial bladder carcinomas, 743489-274-T-PDC renal cell carcinoma, 138582-R-J1 Merkel cell tumor, K60290-347-R-J1 and K57222-313-R-J1-PDC glioblastomas, 653999-131-R-J2-PDC, LG0703-F948-PDC, and 349418-098-R-PDC non-small cell lung carcinomas, 885512-296-R-J2-PDC, 171881-019-R-J1-PDC breast carcinomas and 186277-243-T-J2-PDC and 233499-124-R-J2-PDC colon carcinomas were obtained from the NCI Patient-Derived Models Repository (PDMR, https://pdmr.cancer.gov). The established cell lines NCI/ADR-RES (RRID:CVCL_14520 and OVCAR-5 (RRID:CVCL_1628) ovarian carcinomas, 786-O (RRID:CVCL_1051) and A498 (RRID:CVCL_A498) renal cell carcinoma, NCI-H211 (ATCC, cat. CRL-5824; RRID:CVCL_1529), NCI-H196 (ATCC, cat. CRL-5823, RRID:CVCL_1509), SW 1271 (ATCC, cat. CRL-2177, RRID:CVCL_1716) and NCI-H1876 (ATCC, cat. CRL-5902, RRID:CVCL_1503) small cell lung carcinomas, MDA-MB-231 (RRID:CVCL_0062) and MDA-MB-468 (RRID:CVCL_0419)breast carcinomas (10-12). Pooled donor human umbilical vein endothelial cells (HUVEC, Lonza, cat. CC-2519) and human mesenchymal stem cells (hMSC, Lonza, cat. PT-2501) were purchased from Lonza (Walkersville, MD).
Cell Culture. All cells were maintained in an incubator at 37 degrees C and 5% CO2 with 95% humidity. The PDC lines were cultured according to standard operating procedures established by the NCI PDMR (https://pdmr.cancer.gov). Briefly all PDCs were thawed and cultured in Matrigel-coated flasks prepared with a working solution of 1X Ham's F-12 nutrient mix, without supplementation (Invitrogen, Waltham, MA, cat. 11765054), 100 U/mL penicillin-streptomycin (Invitrogen, cat. 15140122), and 2.5% Matrigel (Corning Inc., Corning, NY, cat. 354248) for the first three passages. […]

Some entries of the source have several records that differ or are many. Only these are listed. There may be further records. Values that stand side by side are repeated measurements in other runs, samples, wells, individuals or studies. Additions like (4×) stand for listed records that agree. A date in brackets names the month of the test.
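Note: spheroids exposed to compounds for 7 days before readout; 100% = DMSO vehicle control wells.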

As for `NC1CCC(NC2CC2c2ccccc2)CC1` (stereo not drawn), the viability, T/C was 96.1, 102 (4×), 97.1, 105, 107 (3×), 112 (2×), 110, 96.2, 99.1, 104, 111, 99.7, 99.9, 77.3, 103, 94.1, 94.8, 120, 106% (compound alone 0.1 µM); 122, 118, 114 (2×), 111 (3×), 120 (2×), 109 (2×), 86.1, 128 (2×), 116, 101, 90.6, 106, 119, 110 (2×), 97.1, 94, 105, 112% (compound alone 1 µM); 110, 106, 105 (3×), 122, 114 (2×), 109 (2×), 112 (3×), 104 (2×), 99.4, 115, 91.5, 103, 111, 117, 98.8, 101, 98.9, 121% (compound alone 3.16 µM); 112, 110, 113 (2×), 102, 128, 101, 126, 99.6, 95.4, 107 (3×), 100, 82.2, 90, 122 (2×), 95, 95.2, 118, 97, 106% (compound alone 10 µM).

Consider `NC1CC1c1ccc(-c2cccc(O)c2)cc1` (stereo not drawn), for which the viability, T/C (compound alone 1 µM) was 109, 102 (3×), 99.9, 92.8 (2×), 106, 87.4, 91.7, 99.8, 96.4, 96.2, 101, 110, 88, 90.1, 98.8, 116, 91.9, 95 (2×), 104, 89.1, 105%; the viability, T/C (compound alone 3.16 µM) is 90.4, 95.6, 102 (2×), 89.5, 97.9, 86.4, 94.7, 106, 110 (2×), 92.4, 104, 98.2, 107, 87.4, 90.7, 103 (2×), 109, 93.1, 97.1, 98.3, 96.4, 112%; the viability, T/C (compound alone 10 µM) is 97.8, 114, 86.3, 89.1, 86.5, 100 (2×), 99.4, 97.9, 109 (2×), 93.7, 98.2, 105 (2×), 102, 88.6, 98, 101 (2×), 64.8, 103, 89, 92, 92.9%.

Consider `CC(C)c1c(-c2ccccc2)nc2c(C#N)c[nH]n2c1=O`, for which the viability, T/C (compound alone 10 µM) was 77.2% [2021-11] and 113% [2021-12].
